In the supplement of paper PMC8728848:
The list shows a part of the results.

Assays:
Experiment in all cases: glycan array binding signal (z-score within array); higher = stronger binding
Settings in all cases: glycan notation: IUPAC condensed, linker removed
[1] = biological target: Neu5Ac(a2-3)Gal(b1-4)[Fuc(a1-3)]GlcNAc(b1-3)Gal
Outline: (§1)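 The binding signal is a Z-score computed within each array and averaged over linkers. Arrays of the same protein sequence at different concentrations or buffers were also averaged together. Data originate from 3228 arrays in the Consortium for Functional Glycomics database, kept only where the protein sequence was available.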

[2] = biological target: Neu5Ac(a2-3)Gal(b1-4)[Fuc(a1-3)]GlcNAc(b1-3)Gal(b1-4)GlcNAc
Outline: as §1

[3] = biological target: Neu5Ac(a2-3)Gal(b1-4)[Fuc(a1-3)]GlcNAc(b1-3)Gal(b1-4)[Fuc(a1-3)]GlcNAc(b1-3)Gal(b1-4)[Fuc(a1-3)]GlcNAc
Outline: as §1

[4] = biological target: Neu5Ac(a2-3)Gal(b1-4)[Fuc(a1-3)]GlcNAc(b1-6)[Gal(b1-3)]GalNAc
Outline: as §1

[5] = biological target: Neu5Ac(a2-3)Gal(b1-4)[Fuc(a1-3)]GlcNAc6S
Outline: as §1

[6] = biological target: Neu5Ac(a2-3)Gal6S(b1-4)GlcNAc
Outline: as §1

[7] = biological target: Neu5Ac(a2-3)Gal6S(b1-4)[Fuc(a1-3)]GlcNAc
Outline: as §1

[8] = biological target: Neu5Ac(a2-3)GalNAc
Outline: as §1

[9] = biological target: Neu5Ac(a2-3)GalNAc(b1-4)GlcNAc
Outline: as §1

[10] = biological target: Neu5Ac(a2-3)[GalNAc(b1-4)]Gal(b1-4)Glc
Outline: as §1

[11] = biological target: Neu5Ac(a2-3)[GalNAc(b1-4)]Gal(b1-4)GlcNAc
Outline: as §1

[12] = biological target: Neu5Ac(a2-3)[Neu5Ac(a2-6)]GalNAc
Outline: as §1

[13] = biological target: Neu5Ac(a2-6)Gal
Outline: as §1

[14] = biological target: Neu5Ac(a2-6)Gal(b1-4)Glc
Outline: as §1

[15] = biological target: Neu5Ac(a2-6)Gal(b1-4)GlcNAc
Outline: as §1

[16] = biological target: Neu5Ac(a2-6)Gal(b1-4)GlcNAc(b1-2)Man(a1-3)[Gal(b1-4)GlcNAc(b1-2)Man(a1-6)]Man(b1-4)GlcNAc(b1-4)GlcNAc
Outline: as §1

[17] = biological target: Neu5Ac(a2-6)Gal(b1-4)GlcNAc(b1-2)Man(a1-3)[GlcNAc(b1-2)Man(a1-6)]Man(b1-4)GlcNAc(b1-4)GlcNAc
Outline: as §1

[18] = biological target: Neu5Ac(a2-6)Gal(b1-4)GlcNAc(b1-2)Man(a1-3)[GlcNAc(b1-2)Man(b1-4)GlcNAc(b1-2)Man(a1-6)]Man(b1-4)GlcNAc(b1-4)GlcNAc
Outline: as §1

[19] = biological target: Neu5Ac(a2-6)Gal(b1-4)GlcNAc(b1-2)Man(a1-3)[Neu5Ac(a2-6)Gal(b1-4)GlcNAc(b1-2)Man(a1-6)]Man(b1-4)GlcNAc(b1-4)GlcNAc
Outline: as §1

[20] = biological target: Neu5Ac(a2-6)Gal(b1-4)GlcNAc(b1-2)Man(a1-6)[Gal(b1-4)GlcNAc(b1-2)Man(a1-3)]Man(b1-4)GlcNAc(b1-4)GlcNAc
Outline: as §1

[21] = biological target: Neu5Ac(a2-6)Gal(b1-4)GlcNAc(b1-2)Man(a1-6)[GlcNAc(b1-2)Man(a1-3)]Man(b1-4)GlcNAc(b1-4)GlcNAc
Outline: as §1

[22] = biological target: Neu5Ac(a2-6)Gal(b1-4)GlcNAc(b1-3)Gal(b1-4)GlcNAc
Outline: as §1

[23] = biological target: Neu5Ac(a2-6)Gal(b1-4)GlcNAc(b1-3)Gal(b1-4)[Fuc(a1-3)]GlcNAc(b1-3)Gal(b1-4)[Fuc(a1-3)]GlcNAc
Outline: as §1

[24] = biological target: Neu5Ac(a2-6)Gal(b1-4)GlcNAc6S
Outline: as §1

[25] = biological target: Neu5Ac(a2-6)GalNAc
Outline: as §1

[26] = biological target: Neu5Ac(a2-6)GalNAc(b1-4)GlcNAc
Outline: as §1

[27] = biological target: Neu5Ac(a2-8)Neu5Ac
Outline: as §1

[28] = biological target: Neu5Ac(a2-8)Neu5Ac(a2-3)Gal(b1-4)Glc
Outline: as §1

[29] = biological target: Neu5Ac(a2-8)Neu5Ac(a2-3)[GalNAc(b1-4)]Gal(b1-4)Glc
Outline: as §1

[30] = biological target: Neu5Ac(a2-8)Neu5Ac(a2-8)Neu5Ac
Outline: as §1

[31] = biological target: Neu5Ac(a2-8)Neu5Ac(a2-8)Neu5Ac(a2-3)Gal(b1-4)Glc
Outline: as §1

[32] = biological target: Neu5Ac(a2-8)Neu5Ac(a2-8)Neu5Ac(a2-3)[GalNAc(b1-4)]Gal(b1-4)Glc
Outline: as §1

[33] = biological target: Neu5Ac(a2-8)Neu5Ac(a2-8)Neu5Ac(a2-8)Neu5Ac(a2-3)[GalNAc(b1-4)]Gal(b1-4)Glc
Outline: as §1

[34] = biological target: Neu5Ac(b2-6)Gal(b1-4)GlcNAc
Outline: as §1

[35] = biological target: Neu5Ac(b2-6)GalNAc
Outline: as §1

[36] = biological target: Neu5Ac9Ac(a2-6)Gal(b1-4)GlcNAc
Outline: as §1

[37] = biological target: Neu5Gc(a2-3)Gal(b1-3)GlcNAc
Outline: as §1

[38] = biological target: Neu5Gc(a2-3)Gal(b1-3)[Fuc(a1-4)]GlcNAc
Outline: as §1

[39] = biological target: Neu5Gc(a2-3)Gal(b1-4)Glc
Outline: as §1

[40] = biological target: Neu5Gc(a2-3)Gal(b1-4)GlcNAc
Outline: as §1

[41] = biological target: Neu5Gc(a2-3)Gal(b1-4)[Fuc(a1-3)]GlcNAc
Outline: as §1

[42] = biological target: Neu5Gc(a2-6)Gal(b1-4)GlcNAc
Outline: as §1

[43] = biological target: Neu5Gc(a2-6)GalNAc
Outline: as §1

[44] = biological target: Neu5Gc(b2-6)Gal(b1-4)GlcNAc
Outline: as §1

B1: RfpB (Mycobacterium tuberculosum), O05594 (protein)
chain: MAAGLVTASMSLSTAVAHAGPSPNWDAVAQCESGGNWAANTGNGKYGGLQFKPATWAAFGGVGNPAAASREQQIAVANRVLAEQGLDAWPTCGAASGLPIALWSKPAQGIKHAGPSPNWDAVAQCESGGNWAANTGNGKYGGLQFKPATWAAFGGVGNPAAASREQQIAVANRVLAEQGLDAWPTCGA
glycan array binding signal (z-score) [1]: -0.07
glycan array binding signal (z-score) [2]: 0.039
glycan array binding signal (z-score) [3]: -0.201
glycan array binding signal (z-score) [4]: -0.338
glycan array binding signal (z-score) [5]: 0.147
glycan array binding signal (z-score) [6]: -0.712
glycan array binding signal (z-score) [7]: 0.035
glycan array binding signal (z-score) [8]: 0.601
glycan array binding signal (z-score) [9]: -0.653
glycan array binding signal (z-score) [10]: -0.524
glycan array binding signal (z-score) [11]: -0.024
glycan array binding signal (z-score) [12]: -0.117
glycan array binding signal (z-score) [13]: 0.561
glycan array binding signal (z-score) [14]: 0.151
glycan array binding signal (z-score) [15]: -0.144
glycan array binding signal (z-score) [16]: 0.009
glycan array binding signal (z-score) [17]: -0.499
glycan array binding signal (z-score) [18]: -0.563
glycan array binding signal (z-score) [19]: -0.289
glycan array binding signal (z-score) [20]: -0.165
glycan array binding signal (z-score) [21]: -0.536
glycan array binding signal (z-score) [22]: -0.988
glycan array binding signal (z-score) [23]: 1.58
glycan array binding signal (z-score) [24]: -0.352
glycan array binding signal (z-score) [25]: -0.605
glycan array binding signal (z-score) [26]: -0.639
glycan array binding signal (z-score) [27]: 0.607
glycan array binding signal (z-score) [28]: -0.396
glycan array binding signal (z-score) [29]: -0.281
glycan array binding signal (z-score) [30]: 0.077
glycan array binding signal (z-score) [31]: -0.52
glycan array binding signal (z-score) [32]: -0.688
glycan array binding signal (z-score) [33]: -0.552
glycan array binding signal (z-score) [34]: -0.626
glycan array binding signal (z-score) [35]: -0.419
glycan array binding signal (z-score) [36]: 0.858
glycan array binding signal (z-score) [37]: 0.456
glycan array binding signal (z-score) [38]: -0.528
glycan array binding signal (z-score) [39]: -0.323
glycan array binding signal (z-score) [40]: -0.025
glycan array binding signal (z-score) [41]: -0.209
glycan array binding signal (z-score) [42]: -0.23
glycan array binding signal (z-score) [43]: 0.7
glycan array binding signal (z-score) [44]: 0.655
